Results reported in the supplement of paper PMC4604168 (melanoma cell lines).
The list shows a part of the results. Single values are uncertain, as repeats are few or missing.

Key:
Test in all cases: cell count relative to DMSO control; melanoma cells; higher = more viable cells
Conditions in all cases: library dose: low library concentration; 72 h
MZ2-MEL = system: MZ2-MEL
MeWo = system: MeWo
RPMI7951 = system: RPMI7951
RVH-421 = system: RVH-421
SkMel28 = system: SkMel28
SkMel30 = system: SkMel30
UACC62 = system: UACC62
SkMel5 = system: SkMel5
UACC257 = system: UACC257
SkMel2 = system: SkMel2
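Also: cell number obtained by counting DAPI-stained nuclei in high-throughput microscope images with image analysis software, screen run in 1,536-well plates.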

SMILES | cell count (MZ2-MEL) | cell count (MeWo) | cell count (RPMI7951) | cell count (RVH-421) | cell count (SkMel28) | cell count (SkMel30) | cell count (UACC62) | cell count (SkMel5) | cell count (UACC257) | cell count (SkMel2)
C[C@]12O[C@H](C[C@]1(O)CO)n1c3ccccc3c3c4c(c5c6ccccc6n2c5c31)CNC4=O [Lestaurtinib] + COCC[n+]1c2c(n(Cc3cnccn3)c1C)C(=O)c1ccccc1C2=O [YM155] (first compound 0.004 µM, partner dose 0.0004 µM) | 70% | 105% | 103% | 124% | 125% | 116% | 103% |  |  | 
Cn1cc(C2=C(c3cn(C4CCN(Cc5ccccn5)CC4)c4ccccc34)C(=O)NC2=O)c2ccccc21 [Enzastaurin] + CC(=O)O[C@@]12CO[C@@H]1C[C@H](O)[C@@]1(C)C(=O)[C@H](O)C3=C(C)[C@@H](OC(=O)[C@H](O)[C@@H](NC(=O)OC(C)(C)C)c4ccccc4)C[C@@](O)([C@@H](OC(=O)c4ccccc4)[C@H]21)C3(C)C [Docetaxel] (first compound 0.8 µM, partner dose 0.0001 µM) |  | 64.5% | 40.9% | 58.3% | 46.5% | 45.1% | 47.6% |  |  | 
C[C@]12O[C@H](C[C@]1(O)CO)n1c3ccccc3c3c4c(c5c6ccccc6n2c5c31)CNC4=O [Lestaurtinib] + C=C(c1ccc(C(=O)O)cc1)c1cc2c(cc1C)C(C)(C)CCC2(C)C [Bexarotene] (first compound 0.004 µM, partner dose 2 µM) | 113% | 83.6% | 80.1% | 76.3% | 75.9% | 87.6% | 95.9% |  |  | 
C[C@]12O[C@H](C[C@]1(O)CO)n1c3ccccc3c3c4c(c5c6ccccc6n2c5c31)CNC4=O [Lestaurtinib] + C[C@]1(c2nc3c(C(N)=O)cccc3[nH]2)CCCN1 [Veliparib] (first compound 0.004 µM, partner dose 1.4 µM) | 97.7% | 98.8% | 96.9% | 97.8% | 96.9% | 87.5% | 83.5% |  |  | 
C[C@]12O[C@H](C[C@]1(O)CO)n1c3ccccc3c3c4c(c5c6ccccc6n2c5c31)CNC4=O [Lestaurtinib] + Cn1nnc2c(C(N)=O)ncn2c1=O [temozolomide] (first compound 0.004 µM, partner dose 2 µM) |  | 86.3% | 89% | 119% | 77.7% | 70.2% | 90.8% |  |  | 
N.N.[Cl][Pt][Cl] [cisplatin] + O=C(Oc1ccc([N+](=O)[O-])cc1)N1CCC(C(O)(c2ccc3c(c2)OCO3)c2ccc3c(c2)OCO3)CC1 [JZL184] (first compound 1.6 µM, partner dose 1 µM) |  | 110% | 106% | 98.6% | 103% | 94.3% | 101% | 94.5% | 107% | 
C[C@]12O[C@H](C[C@]1(O)CO)n1c3ccccc3c3c4c(c5c6ccccc6n2c5c31)CNC4=O [Lestaurtinib] + Nc1ccn([C@@H]2O[C@H](CO)[C@@H](O)C2(F)F)c(=O)n1 [gemcitabine] (first compound 0.004 µM, partner dose 0.0004 µM) | 91.7% | 83.3% | 79.8% | 91% | 76.1% | 82% | 102% |  |  | 
Cn1cc(C2=C(c3cn(C4CCN(Cc5ccccn5)CC4)c4ccccc34)C(=O)NC2=O)c2ccccc21 [Enzastaurin] + NC1(c2ccc(-c3nc4ccn5c(=O)[nH]nc5c4cc3-c3ccccc3)cc2)CCC1 [MK2206] (first compound 0.8 µM, partner dose 0.4 µM) |  | 102% | 81.4% | 83.4% | 83.8% | 92.5% | 83.1% |  |  | 
Cn1cc(C2=C(c3cn(C4CCN(Cc5ccccn5)CC4)c4ccccc34)C(=O)NC2=O)c2ccccc21 [Enzastaurin] + CO[C@H]1C[C@@H]2CC[C@@H](C)[C@@](O)(O2)C(=O)C(=O)N2CCCC[C@H]2C(=O)O[C@H]([C@H](C)C[C@@H]2CC[C@@H](OCCO)[C@H](OC)C2)CC(=O)[C@H](C)/C=C(\C)[C@@H](O)[C@@H](OC)C(=O)[C@H](C)C[C@H](C)/C=C/C=C/C=C/1C [everolimus] (first compound 0.8 µM, partner dose 0.02 µM) | 83% | 92.4% | 76% | 80.3% | 58.7% | 77.4% | 91.3% |  |  | 
C[C@]12O[C@H](C[C@]1(O)CO)n1c3ccccc3c3c4c(c5c6ccccc6n2c5c31)CNC4=O [Lestaurtinib] + C#Cc1cccc(Nc2ncnc3cc(OCCOC)c(OCCOC)cc23)c1 [erlotinib] (first compound 0.004 µM, partner dose 0.8 µM) | 86.6% | 82.4% | 88.6% | 92.6% | 82.2% | 79.7% | 72.7% |  |  | 
C[C@]12O[C@H](C[C@]1(O)CO)n1c3ccccc3c3c4c(c5c6ccccc6n2c5c31)CNC4=O [Lestaurtinib] + CN(c1ncccc1CNc1nc(Nc2ccc3c(c2)CC(=O)N3)ncc1C(F)(F)F)S(C)(=O)=O [PF562271] (first compound 0.004 µM, partner dose 0.08 µM) | 91.2% | 95.2% | 82.9% | 100% | 91% | 92.8% | 88.8% |  |  | 
C[As](C)SC[C@H](NC(=O)CC[C@H](N)C(=O)O)C(=O)NCC(=O)O [Darinaparsin] + Oc1cc(-c2nc(-c3ccccc3)[nH]c2-c2ccncc2)ccc1Cl [L779450] (first compound 0.4 µM, partner dose 0.2 µM) |  | 98.5% | 101% | 75.7% | 84.7% | 91.4% | 58.5% | 96.1% | 74% | 
C[As](C)SC[C@H](NC(=O)CC[C@H](N)C(=O)O)C(=O)NCC(=O)O [Darinaparsin] + COc1ccc(Cl)c(Nc2nc3ccccc3nc2NS(=O)(=O)c2cccc(NC(=O)C(C)(C)N)c2)c1 [XL147] (first compound 0.4 µM, partner dose 0.8 µM) |  | 85% | 104% | 99.2% | 103% | 94.4% | 87.1% |  |  | 
C[C@]12O[C@H](C[C@]1(O)CO)n1c3ccccc3c3c4c(c5c6ccccc6n2c5c31)CNC4=O [Lestaurtinib] + Cn1c(Nc2ccc(C(F)(F)F)cc2)nc2cc(Oc3ccnc(-c4ncc(C(F)(F)F)[nH]4)c3)ccc21 [CHIR265] (first compound 0.004 µM, partner dose 0.08 µM) |  | 79.1% | 82.1% | 85% | 79.7% | 49.5% | 49.6% |  |  | 
N.N.[Cl][Pt][Cl] [cisplatin] + O=C(O)c1ccc(-c2c[nH]c3ncc(-c4ccccc4)cc23)cc1C1CCCC1 [GSK650394] (first compound 1.6 µM, partner dose 0.16 µM) |  | 86.9% | 128% | 76.1% | 99.5% | 89.7% | 92.6% | 103% | 114% | 109%
C[C@]12O[C@H](C[C@]1(O)CO)n1c3ccccc3c3c4c(c5c6ccccc6n2c5c31)CNC4=O [Lestaurtinib] + OCc1c[nH]c2ccccc12 [Indole-3-carbinol] (first compound 0.004 µM, partner dose 0.8 µM) | 105% | 96.9% | 126% | 113% | 89.6% | 91.8% | 97.1% |  |  | 
Cn1cc(C2=C(c3cn(C4CCN(Cc5ccccn5)CC4)c4ccccc34)C(=O)NC2=O)c2ccccc21 [Enzastaurin] + Cc1cc([N+](=O)[O-])ccc1NS(=O)(=O)c1cc(Cl)ccc1Cl [FH535] (first compound 0.8 µM, partner dose 1 µM) |  | 117% | 97.3% | 93.5% | 93.7% | 94.8% | 78% | 77.3% | 69.7% | 
C[C@]12O[C@H](C[C@]1(O)CO)n1c3ccccc3c3c4c(c5c6ccccc6n2c5c31)CNC4=O [Lestaurtinib] + Cn1c(=O)n(-c2ccc(C(C)(C)C#N)cc2)c2c3cc(-c4cnc5ccccc5c4)ccc3ncc21 [NVP-BEZ235] (first compound 0.004 µM, partner dose 0.004 µM) | 90.9% | 80.4% | 108% | 88.4% | 88.5% | 88.2% | 77.7% |  |  | 
